Experimental data taken from the RNAGym collection of RNA variant scans (doi:10.1093/nar/gkz1192).
Read counts are not given, so values of variants with three or more changes are uncertain.

B1: CPEB3 Ribozyme (parent)
chain: UAACAGGGGGCCACAGCAGAAGCGUUCACGUCGCAGCCCCUGUCAGAUUCUGGUGAAUCUGCGAAUUCUGCUGUAUAUCUC

Variants of: B1
Assay: self-cleavage, relative activity (ratio to wild type); higher = more cleavage; in vitro, sequencing
Outline: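 Libraries of CPEB3 self-cleaving ribozyme mutants came from rounds of error-prone PCR and carried barcodes, which DNA sequencing matched to variants. In vitro transcription used T7 RNA polymerase at 37°C for 5 hours, with a further 15 min in DNase I before EDTA stopped the reaction; the ribozymes cleaved during both steps. The RNA was reverse transcribed with template switching and sequenced on Illumina. Relative activity is the cleaved/total read fraction of a variant divided by that of the unmutated ribozyme, averaged over three batches with at least 5 reads.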

Variant	self-cleavage
U49C U51G U76C	0.35
U48G A56G U60A A64G U66A U76A U78C	0.06
G53A G55A U74C	1.18
U51C A57U U58A U69C A77G	0.13
A56C U60A U78G	0.16
U54A C62A U69C U72G U78C	0.21
U49C G70A U80C	0.19
A45U U51C A64G	0.25
A47G A57C G61U U72C	0.1
A56C A65U U74A	0.13
U54C A56U U72C U74A	0.62
G52A A64G U72C U78C	1.03
A45U U49C U72C U74C	0.16
G52U U67C U69C	0.23
U51A A64G A77G	0.92
C50A U72A U78C U80C	1
U54G U66C U74A	0.4
U49C A75G U78C	0.09
U48A U60A U80G	0.16
U48C U66C U67C U69C U76C	0.09
U48C U66C U80C	0.13

Variant	self-cleavage
G46U A47U A56G U69C	0.09
G52A U60A A64U	0.16
G46A U54C U80C	0.27
U49C A57G A77G	0.3
U54A A56U A65G	0.36
A47G A56C A57G U80C	0.16
A47G A56U U66C	0.09
U49A U54C U60A C62G	0.17
G46U U66C C79U	0.1
U49A U67C C68A	0.22
A45U U67A U74G	0.29
U51A U60A A64U	0.24
G55C A56G U69C	0.27
A56G A64C U72C U78C	0.23
A47G A65G U78C U80A	0.42
U48C A56G U67A	0.17
A47G C59U U69A	0.21
C50G U67A U69C	0.11
A45U U49C A56U U69A U74C	0.1
A47G U48G U60C	0.17
A47G U54G A56U U76C	0.22

Variant	self-cleavage
A47G U69A U72A	0.34
U49G U72C U76C	0.64
U49A U58C U69C	0.32
U51A A57G U74A	0.93
U54C U76C U78C U80A	0.7
U51C A65U U67A	0.45
A47U U51C U69A U76A	0
A45U G53A A64G U72A	0.4
A47G U54A U66C	0.22
U48C U58A U78A U80A	0.36
A45U A65G U69C	0.15
U48C U51C A56G U69C	0.21
A45U U72A A77G U80C	0.93
U49A U51A U66C	0.19
U54C U58A U80A	0.31
U48C U58A U60C U72G	0.13
U54G U66C G70A	0.34
U49C U58A U66C	0.36
U54G U66C U69A	0.15
G52C U54C G55U U60C U80C	0.2
A47G U51C U67C U76C	0.49

Variant	self-cleavage
U54A U60C U69C	0.58
U54C A56C U60A	0.18
U49C U67A U80A	0.1
U48C A56G A64G	0.3
U54A U60C C62U U72A	0.45
U48C U49C A65G	0.08
G46A G55A U80C	0.21
U49C G70U A77G	0.13
A47G U51C U72C	1.27
A47G A56U C59U	0.1
U51A A57G G63A U66C	0.29
A47G U67C U74C A75G	0.29
U49G U51C U76A	0.58
U54A U67C U78C	0.31
U49C A56G U78C	1
U51C U72A A75G U80A	1.17
C50U U54G U60C U69A A75G A77G	0.04
G46C U58A U60C U80G	0.11
U54A A64G U80C	1.08
A45U A65G U80C	0.15
